{"source": "paper PMC4336329", "about": "(PLoS ONE, 2015)", "note": "The whole screen tested about 310,000 compounds, of which about 2,200 (0.71%) showed an effect of 50% or more. The effect is printed as a negative number. The list shows a part of the results."}
{"molecular_target": "human ether-à-go-go-related gene (hERG) potassium channel (human, UniProt Q12809)", "sequence (Q12809 whole entry, looked up)": "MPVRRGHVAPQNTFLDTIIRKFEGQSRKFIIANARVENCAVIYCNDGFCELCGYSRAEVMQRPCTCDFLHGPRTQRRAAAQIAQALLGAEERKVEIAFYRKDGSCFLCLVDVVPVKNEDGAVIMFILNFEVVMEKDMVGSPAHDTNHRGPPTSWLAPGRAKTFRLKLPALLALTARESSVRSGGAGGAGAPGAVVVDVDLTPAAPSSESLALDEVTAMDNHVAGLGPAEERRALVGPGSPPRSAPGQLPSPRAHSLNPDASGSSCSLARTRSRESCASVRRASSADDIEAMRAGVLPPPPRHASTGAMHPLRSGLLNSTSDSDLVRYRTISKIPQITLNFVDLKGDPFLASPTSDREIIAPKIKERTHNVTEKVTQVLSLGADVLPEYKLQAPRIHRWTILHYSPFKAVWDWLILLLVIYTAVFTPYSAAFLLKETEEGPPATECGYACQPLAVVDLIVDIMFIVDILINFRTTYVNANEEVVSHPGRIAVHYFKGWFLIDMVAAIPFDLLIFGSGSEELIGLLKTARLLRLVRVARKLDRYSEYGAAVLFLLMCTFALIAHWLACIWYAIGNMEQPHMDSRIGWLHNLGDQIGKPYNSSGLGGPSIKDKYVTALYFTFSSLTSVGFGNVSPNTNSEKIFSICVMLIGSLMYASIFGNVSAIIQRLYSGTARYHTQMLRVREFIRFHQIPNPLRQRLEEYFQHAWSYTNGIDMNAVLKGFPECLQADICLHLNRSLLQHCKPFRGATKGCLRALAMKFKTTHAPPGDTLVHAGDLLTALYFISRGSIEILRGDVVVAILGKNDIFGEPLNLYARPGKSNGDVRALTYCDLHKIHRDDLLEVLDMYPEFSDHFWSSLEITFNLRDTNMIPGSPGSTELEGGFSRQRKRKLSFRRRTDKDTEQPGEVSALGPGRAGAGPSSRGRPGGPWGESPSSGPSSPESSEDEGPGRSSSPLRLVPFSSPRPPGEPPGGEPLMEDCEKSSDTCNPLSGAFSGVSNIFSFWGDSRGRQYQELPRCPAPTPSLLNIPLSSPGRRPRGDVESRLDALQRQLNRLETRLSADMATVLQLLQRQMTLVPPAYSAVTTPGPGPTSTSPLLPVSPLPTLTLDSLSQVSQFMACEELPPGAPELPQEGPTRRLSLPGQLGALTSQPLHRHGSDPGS", "experiment": "primary screen, population patch clamp on CHO cells stably expressing hERG", "units": {"hERG current change (%, negative = inhibition) at 1uM": "%"}}
{"smiles": "COc1ccc(OC)c(NC(=O)COC(=O)c2nc(Cl)ccc2Cl)c1", "hERG current change (%, negative = inhibition) at 1uM": 23.1}
{"smiles": "O=S(=O)(CCc1nc2ccccc2[nH]1)c1ccc(Cl)cc1", "hERG current change (%, negative = inhibition) at 1uM": 7.75}
{"smiles": "COc1ccc(CNC(=O)/C=C/c2cc([N+](=O)[O-])ccc2OC(F)F)cc1", "hERG current change (%, negative = inhibition) at 1uM": 18}
{"smiles": "COc1ccc2cc3cc(C(=O)N4CCCCCC4)oc3nc2c1", "hERG current change (%, negative = inhibition) at 1uM": 11.2}
{"smiles": "COC(=O)c1c(C)oc2ccc(NS(=O)(=O)c3cccs3)cc12", "hERG current change (%, negative = inhibition) at 1uM": 5.76}
{"smiles": "O=C(Nc1ccc2nc(-c3ccco3)c(-c3ccco3)nc2c1)N1CCCCCC1", "hERG current change (%, negative = inhibition) at 1uM": 14.1}
{"smiles": "Nc1nnc(SCc2cccc(C(F)(F)F)c2)s1", "hERG current change (%, negative = inhibition) at 1uM": 7.59}
{"smiles": "COc1ccc2[nH]c3c(c2c1)CCN1C(=O)N([C@@H](C)C(=O)NC2CCCC2)C(=O)[C@]31C", "hERG current change (%, negative = inhibition) at 1uM": 0.767}
{"smiles": "CCOc1ccc(NS(=O)(=O)c2ccc(OCC(=O)N3CCCC3)cc2)cc1", "hERG current change (%, negative = inhibition) at 1uM": 8.88}
{"smiles": "Cc1ccc(NC(=O)N2CCN(C)CC2)cc1NC(=O)N1CCN(C)CC1", "hERG current change (%, negative = inhibition) at 1uM": 11}
{"smiles": "O=C(O)c1ccc(Cl)c2c1C1C=CCC1C(c1ccccn1)N2", "note": "(stereo not drawn)", "hERG current change (%, negative = inhibition) at 1uM": 11}
{"smiles": "COc1ccccc1CNC(=O)c1cccc(NC(=O)c2ccccc2)c1", "hERG current change (%, negative = inhibition) at 1uM": -2.98}
{"smiles": "COc1ccc(-c2nnc(SCC(=O)c3cc(C)n(Cc4cccs4)c3C)o2)cc1", "hERG current change (%, negative = inhibition) at 1uM": 5.24}
{"smiles": "CS(=O)(=O)Nc1ccc(-c2cn3c(n2)SCC3)cc1", "hERG current change (%, negative = inhibition) at 1uM": 14.5}
{"smiles": "CCCOc1ccc(C(C)=O)cc1CC(C(N)=O)C(N)=O", "hERG current change (%, negative = inhibition) at 1uM": 7.15}
{"smiles": "COC(=O)c1nnn(-c2nc(N(C)C)nc(N(C)C)n2)c1C", "hERG current change (%, negative = inhibition) at 1uM": -5.76}
{"smiles": "O=C1CSC(c2cccc([N+](=O)[O-])c2)N1C1CC2CCC1C2", "note": "(stereo not drawn)", "hERG current change (%, negative = inhibition) at 1uM": 13.3}
{"smiles": "Cc1cccc(NC(=O)CC2C(=O)NC3CCCCC3N2C(=O)c2ccccc2Cl)c1", "note": "(stereo not drawn)", "hERG current change (%, negative = inhibition) at 1uM": 12.9}
{"smiles": "Cc1ccccc1S(=O)(=O)NNC(=O)C(=O)NNc1ccccn1", "hERG current change (%, negative = inhibition) at 1uM": 11.9}
{"smiles": "Cc1cc(C(C)(C)C)cc(C)c1COC(=O)CN1C(=O)NC2(CCCC2)C1=O", "hERG current change (%, negative = inhibition) at 1uM": 4.65}
{"smiles": "CCOc1ccccc1NC(=O)COC(=O)CCOc1cc(C)ccc1C", "hERG current change (%, negative = inhibition) at 1uM": 6.44}
{"smiles": "Cc1cccc(OCC2=N/C(=C\\N(C)C)C(=O)O2)c1", "hERG current change (%, negative = inhibition) at 1uM": 5.7}
{"smiles": "CCN1CCN(c2cc(C)c3cc(NC(=O)c4cc(OC)cc(OC)c4)ccc3n2)CC1", "hERG current change (%, negative = inhibition) at 1uM": 10.1}
{"smiles": "NC(=S)NC1CC2CC1C1C=CCC21", "note": "(stereo not drawn)", "hERG current change (%, negative = inhibition) at 1uM": 14}
{"smiles": "COc1cc(/C=C/C(=O)N2CCOCC2)ccc1OCc1ccccc1", "hERG current change (%, negative = inhibition) at 1uM": -0.192}
{"smiles": "Cc1cccc(C)c1-n1c(C)cc(/C=C2\\NC(=O)NC2=O)c1C", "hERG current change (%, negative = inhibition) at 1uM": -4.15}
{"smiles": "CCc1ccc(CN2CCC(C(=O)Nc3ccc(-n4nc(C)cc4C)cc3)CC2)o1", "hERG current change (%, negative = inhibition) at 1uM": -4.73}
{"smiles": "Cc1cccc(NC(=O)CCc2ccc(S(=O)(=O)NC3CCCCC3)cc2)c1", "hERG current change (%, negative = inhibition) at 1uM": 13.5}
{"smiles": "CCOCCCNC(=O)CC1Oc2ccc(C)cc2NC1=O", "note": "(stereo not drawn)", "hERG current change (%, negative = inhibition) at 1uM": 1.9}
{"smiles": "CC(=O)c1ccc(NC(=O)CSc2nc3[nH]ncc3c(=O)[nH]2)cc1", "hERG current change (%, negative = inhibition) at 1uM": 17.2}
{"smiles": "COc1ccc(/C(C)=N/N2C(C)CCCC2C)c(OC)c1", "note": "(stereo not drawn)", "hERG current change (%, negative = inhibition) at 1uM": 9.4}
{"smiles": "CC1(OC(=O)c2ccco2)C(=O)C=C2C=C(c3ccsc3)OC=C2C1=O", "note": "(stereo not drawn)", "hERG current change (%, negative = inhibition) at 1uM": 9.06}
{"smiles": "O=C(N/N=C/c1cc([N+](=O)[O-])ccc1O)Nc1ccccc1", "hERG current change (%, negative = inhibition) at 1uM": 14.1}
{"smiles": "COc1ccccc1CNC(=O)Cn1nnc(-c2ccncc2)n1", "hERG current change (%, negative = inhibition) at 1uM": 4.09}
{"smiles": "Cc1nc(NC(C)C)c2oc3ccccc3c2n1.Cl", "hERG current change (%, negative = inhibition) at 1uM": -8.88}
{"smiles": "Br.FC(F)(F)c1nnc2n1N=C(c1ccccc1)CS2", "hERG current change (%, negative = inhibition) at 1uM": 12.7}
{"smiles": "CC(C)CNC(=O)C1Nc2ccc(C(F)(F)F)cc2C2C=CCC12", "note": "(stereo not drawn)", "hERG current change (%, negative = inhibition) at 1uM": 9.89}
{"smiles": "Cc1csc(NC(=O)CSc2nc(C)cs2)n1", "hERG current change (%, negative = inhibition) at 1uM": 7.16}
{"smiles": "CCOc1ccc(N(CC(=O)N2CCCCC2)S(=O)(=O)c2ccc(Cl)cc2)cc1", "hERG current change (%, negative = inhibition) at 1uM": 10.5}
{"smiles": "COc1ccc(C(=O)NNC(=O)Cc2ccc([N+](=O)[O-])cc2)cc1", "hERG current change (%, negative = inhibition) at 1uM": 13.5}
{"smiles": "C=CCNC(=O)CN1CCC(O)(c2ccc(F)cc2)CC1", "hERG current change (%, negative = inhibition) at 1uM": 5.88}
{"smiles": "CC(C)n1c(C(O)c2ccccc2)nc2ccccc21", "note": "(stereo not drawn)", "hERG current change (%, negative = inhibition) at 1uM": 9.39}
{"smiles": "COC(=O)c1cc(OC)c(OC)cc1NC(=O)c1ccccc1C", "hERG current change (%, negative = inhibition) at 1uM": 11.3}
{"smiles": "CCC(c1nnnn1C1CCCC1)N1CCN(C(=O)c2ccco2)CC1.Cl", "note": "(stereo not drawn)", "hERG current change (%, negative = inhibition) at 1uM": -2.67}
{"smiles": "O=C(Nc1c2c(nn1-c1ccccc1)CS(=O)C2)c1ccc(S(=O)(=O)N2CCOCC2)cc1", "note": "(stereo not drawn)", "hERG current change (%, negative = inhibition) at 1uM": 15.1}
{"smiles": "Cc1cc(C)nc(NS(=O)(=O)c2ccc(NC(=O)NC3CCCCC3)cc2)n1", "hERG current change (%, negative = inhibition) at 1uM": 5.18}
{"smiles": "Cc1[nH]n(-c2ccc([N+](=O)[O-])cc2)c(=O)c1C=NCCN1CCN(C(=O)c2cccc(F)c2)CC1", "hERG current change (%, negative = inhibition) at 1uM": -78}
{"smiles": "Brc1ccc(/C=N/Nc2nc3ccccc3o2)cc1", "hERG current change (%, negative = inhibition) at 1uM": 16}
{"smiles": "Cc1cc(N2CCN(c3cccc(C(F)(F)F)c3)CC2)n2nc(C)nc2n1", "hERG current change (%, negative = inhibition) at 1uM": -18.7}
{"smiles": "CCc1ccc2nc(N(CCCN(C)C)C(=O)c3ccc(S(=O)(=O)N4CCc5ccccc5C4)cc3)sc2c1.Cl", "hERG current change (%, negative = inhibition) at 1uM": 5.61}
{"smiles": "Cl.Clc1cccc(CSc2nnc([C@@H]3CCCN3)o2)c1", "hERG current change (%, negative = inhibition) at 1uM": -0.911}
{"smiles": "CC(C)(C)NC(=O)COC(=O)Cc1ccc(Cl)cc1", "hERG current change (%, negative = inhibition) at 1uM": 8.79}
{"smiles": "Cc1cc(F)ccc1NC(=O)CCc1c(C)nn(-c2ccc(N3CCCCC3)nn2)c1C", "hERG current change (%, negative = inhibition) at 1uM": 14.9}
{"smiles": "CCN(CC(=O)Nc1ccc2c(c1)CCC2)Cc1nc2ccccc2c(=O)[nH]1", "hERG current change (%, negative = inhibition) at 1uM": -1.18}
{"smiles": "C#CCN1C(=O)S/C(=C/C=C/c2ccc(N(C)C)cc2)C1=O", "hERG current change (%, negative = inhibition) at 1uM": 18.8}
{"smiles": "Cc1ccccc1NC(=O)c1cccc(S(=O)(=O)N2CCOCC2)c1", "hERG current change (%, negative = inhibition) at 1uM": 0.392}
{"smiles": "O=C(Nc1nnc(/C=C/c2ccccc2)s1)c1ccco1", "hERG current change (%, negative = inhibition) at 1uM": 12.6}
